Measured values from publication PMC4336329 (PLoS ONE, 2015).
In all, about 310,000 compounds went through this assay and about 14,000 (4.5%) showed an effect of 50% or more. Effects have a minus sign here. The list shows a part of the results.

Each compound was assayed against human ether-à-go-go-related gene (hERG) potassium channel (human, UniProt Q12809) (assay: primary screen, population patch clamp on CHO cells stably expressing hERG).
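Note: peak tail current of the secondary pulse compared with the same well before compound.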

Chain of human ether-à-go-go-related gene (hERG) potassium channel (Q12809 whole entry, looked up): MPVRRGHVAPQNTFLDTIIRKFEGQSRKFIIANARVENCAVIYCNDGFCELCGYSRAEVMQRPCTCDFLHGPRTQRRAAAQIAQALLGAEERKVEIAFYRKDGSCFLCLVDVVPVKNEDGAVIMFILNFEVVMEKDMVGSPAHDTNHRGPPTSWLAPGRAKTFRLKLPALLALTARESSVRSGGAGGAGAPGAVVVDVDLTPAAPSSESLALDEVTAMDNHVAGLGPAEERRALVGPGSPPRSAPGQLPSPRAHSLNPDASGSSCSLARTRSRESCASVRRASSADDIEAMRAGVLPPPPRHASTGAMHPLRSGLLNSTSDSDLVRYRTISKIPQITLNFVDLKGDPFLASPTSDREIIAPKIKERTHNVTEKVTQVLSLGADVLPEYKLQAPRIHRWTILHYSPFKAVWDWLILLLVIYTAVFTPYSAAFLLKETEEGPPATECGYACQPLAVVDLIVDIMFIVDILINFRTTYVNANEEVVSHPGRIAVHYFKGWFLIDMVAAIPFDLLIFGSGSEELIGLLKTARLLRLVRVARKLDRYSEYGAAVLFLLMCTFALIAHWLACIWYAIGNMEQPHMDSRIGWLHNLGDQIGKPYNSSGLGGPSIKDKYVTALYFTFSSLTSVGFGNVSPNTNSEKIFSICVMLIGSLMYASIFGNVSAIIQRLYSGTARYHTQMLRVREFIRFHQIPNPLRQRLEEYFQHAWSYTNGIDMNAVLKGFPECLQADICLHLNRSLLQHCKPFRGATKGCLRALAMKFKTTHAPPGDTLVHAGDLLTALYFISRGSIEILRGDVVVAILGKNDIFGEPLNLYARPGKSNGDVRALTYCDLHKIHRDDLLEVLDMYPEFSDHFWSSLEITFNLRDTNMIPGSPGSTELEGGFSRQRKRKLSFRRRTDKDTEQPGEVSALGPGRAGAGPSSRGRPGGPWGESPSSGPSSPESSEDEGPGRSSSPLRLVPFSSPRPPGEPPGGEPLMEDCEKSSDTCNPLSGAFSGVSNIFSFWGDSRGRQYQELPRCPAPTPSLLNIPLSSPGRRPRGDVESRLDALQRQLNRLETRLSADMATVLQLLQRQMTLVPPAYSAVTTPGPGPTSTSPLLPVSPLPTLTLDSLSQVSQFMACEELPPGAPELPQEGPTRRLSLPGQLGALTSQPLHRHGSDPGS

Structure (SMILES) | hERG current change (%, negative = inhibition) at 10uM [%]
COc1ccc(N2CCN(C(=O)CCNS(=O)(=O)c3ccc4c(c3)CCC(=O)N4)CC2)cc1 | -9.76
CCc1c(C(=O)N/N=C/c2ccc(C)o2)csc1C | -6.62
CC(=O)C1=C(O)C(=O)N(CCCCCC(=O)O)C1c1ccc(N(C)C)cc1 (centres unmarked) | 21.4
O=C(c1ccc([N+](=O)[O-])cc1[N+](=O)[O-])N1CCCC1 | 5.62
O=S(=O)(CCOc1ccccc1)N1CCOCC1 | 15.7
COc1ccc(-c2csc3ncnc(N4CCN(S(=O)(=O)c5cccs5)CC4)c23)cc1 | -8.27
O=C(Nc1nc(-c2ccccn2)cs1)C1CC1 | 17.3
Cc1cc(OCc2cc(C(=O)N3CCC(Oc4cccnc4)CC3)no2)cc(C)c1Cl | 9.06
CC(CCc1ccccc1)NS(=O)(=O)c1ccccc1 (centres unmarked) | -8.87
Cc1ccc(S(=O)(=O)NC2(C(F)(F)F)NC(=O)N(Cc3ccccc3)C2=O)cc1 (centres unmarked) | 9.44
Cc1cccc(NC(=O)Nc2ccc(S(N)(=O)=O)cc2)c1 | 13.4
CCc1ccc(-c2csc3ncn(CC(=O)NCc4ccco4)c(=O)c23)cc1 | -4.39
CC(=O)c1ccccc1NC(=O)COC(=O)c1ccc2c(c1)nc(C)n2-c1ccccc1 | 13.1
N#CCSc1nc2cc(C(=O)N3CCC(C(N)=O)CC3)ccc2c2nc3ccccc3n12 | -4.46
CN(Cc1ccco1)C(=O)Cn1ncc2c([nH]c3ccccc32)c1=O | -10.7
COc1ccc2[nH]c(=O)c(-c3nnn(-c4ccc(F)cc4)n3)cc2c1 | -7.65
CCN(CC)c1ccc(/C=C/C(=O)c2ccc(Br)cc2)cc1 | 25.4
COc1ccc(OC)c(N/C(=N/c2nc(C)cc(C)n2)NC(C)=O)c1 | 14.5
COc1ccc(-c2cc(=O)oc3c(C)c(O)ccc23)cc1 | 19.6
CCC(=O)NC(c1cccs1)c1cc(Cl)c2cccnc2c1O (centres unmarked) | -2.87
CN(c1ccccc1)S(=O)(=O)c1ccc(C(=O)Nc2nnc(-c3ccc(F)cc3)o2)cc1 | 1.12
CSc1nc2nc3c(cc2c(=O)n1-c1ccc(C)cc1)COC(C)(C)C3 | -7.7

Structure (SMILES) | hERG current change (%, negative = inhibition) at 10uM [%]
O=C(C(Cc1ccc(Cl)cc1)NS(=O)(=O)c1ccccc1)N1CC[C@@]2(O)CCCC[C@H]2C1 (some centres unmarked) | -39.6
COc1ccc(CNC(=S)Nc2ccc(F)c(Cl)c2)cc1 | 19.4
Cc1cc(C)c(NC(=S)NC(=O)c2c(Cl)c(C)nn2C)c([N+](=O)[O-])c1 | 12.2
COc1cccc2c1Oc1ncccc1N(C(=O)CCC(=O)NCc1ccccc1)C2 | -11.6
COC(=O)CSc1nnc(CNC(=O)c2ccccc2OC)n1-c1ccc(OC)cc1 | -14.3
CCOc1ccc(NC(=O)c2ccccc2C(=O)c2ccccc2)cc1OCC | 12.1
Cc1nn(CC(=O)Nc2ccc(C(C)C)cc2)c(C)c1[N+](=O)[O-] | 5.83
Cc1ccc(/C=C/C(=O)c2c(C)nc3ccccn23)cc1 | -16
CC(NC(=O)C12CC3CC(C1)CC(n1cncn1)(C3)C2)C12CC3CC(CC(C3)C1)C2 (centres unmarked) | -61.9
COc1ccc(-c2cc(-c3ccccc3)c(C#N)c(=S)[nH]2)cc1 | 18.4
COc1ccc(C2NC(=O)NC(C)=C2[N+](=O)[O-])cc1 (centres unmarked) | -2.26
NC(=O)c1c(/N=C/c2cccnc2)sc2c1CCCC2 | 18.7
CC1(C)CC(=O)C(C=NCCCN2CCOCC2)=C(O)C1 | 10.1
O=C1NC(=O)/C(=C\c2ccc(OCc3ccccc3)cc2)S1 | 13.5
COc1ccc(/C=C2/SC(=O)N(CCC(=O)Nc3ccccc3)C2=O)cc1OC | 6.79
Cl.O.O=c1c2ccccc2nc2n1CC/C2=C/N1CCN(c2cccc(C(F)(F)F)c2)CC1 | -28
CNc1nc2ccccc2n1N | -3.79
COc1cccc(NC(=O)CCNC(=O)N2CC(=O)Nc3ccccc32)c1 | 18.9
COc1ccc(C(=O)N(C)Cc2nc3ccccc3c(=O)[nH]2)cc1S(=O)(=O)N1CCCC1 | -13.2
[O-][Cl+3]([O-])([O-])[O-].c1ccc(-c2cc(-c3ccccc3)[n+](-c3ccccc3)c(-c3ccccc3)c2)cc1 | -71.3
CCc1nnc(NC(=O)c2ccc(Cl)nc2)s1 | 9.78
CCn1c(SCC(N)=O)nc2cc(S(=O)(=O)N3CCOCC3)ccc21 | -15.3

Structure (SMILES) | hERG current change (%, negative = inhibition) at 10uM [%]
COC(=O)c1ccccc1-c1ccc(C=O)o1 | 25.3
Clc1cccc(-c2cc3nc4c(c(N5CCN(c6cnccn6)CC5)n3n2)CCCC4)c1 | 1.15
O=C(Nc1cccnc1)c1ccc(S(=O)(=O)c2ccc(Cl)cc2)cc1 | -14
COc1ccc(-c2cc(N)n(CCC#N)n2)c(OC)c1 | 4.12
CSc1cccc(NC(=S)N(Cc2ccc(C)cc2)Cc2ccccn2)c1 | -4.75
O=C(O)c1ccc(CSCc2ccccc2Cl)o1 | 20.5
O=C(CN1CCN(S(=O)(=O)c2ccccc2)CC1)N1CCCCC1 | 10.8
CC(C)CN(C(=O)CN1CCN(S(=O)(=O)c2ccc3ccccc3c2)CC1)c1c(N)n(CC(C)C)c(=O)[nH]c1=O | 11.5
COc1ccc(CN2CCN(Cc3ccc(C(F)(F)F)cc3)CC2)c(OC)c1.O=C(O)C(=O)O | -74.1
O=C(c1ccc(Cl)cc1)C1CCCN(Cc2ccon2)C1 (centres unmarked) | -18
O=C(Cc1c(F)cccc1Cl)Nc1ccc(-n2cnnn2)cc1 | -3.19
O=C(NC(=S)NCCOCc1ccc(Cl)cc1)c1cccnc1 | -26.8
COc1ccc(OC)c(C2=NOC(C(=O)Nc3cccnc3)C2)c1 (centres unmarked) | -9.42
CCC(=O)Nc1ccc(C(=O)NNC(=O)c2cc([N+](=O)[O-])cc([N+](=O)[O-])c2)cc1 | 12.7
CCN(CC(=O)Nc1c(F)cccc1F)C(=O)c1cccc(S(=O)(=O)N2CCc3ccccc3C2)c1 | -20
CCOc1ccc(C(=O)N2CCC(C(=O)c3ccc4c(c3)OCCO4)CC2)cc1 | -75.7
O=C(Nc1ccc(S(=O)(=O)N2CCCC2)cc1)N1c2ccccc2Sc2ccccc21 | 47.3
N#Cc1c2c(c(NCc3ccco3)n3c1nc1ccccc13)CCC2 | 6.77
OCCCNc1nccc(-c2cc(Nc3cccc(Cl)c3)ncn2)n1 | 9.69
COC(=O)CC1C(=O)NC(C)=C1C(=O)OC (centres unmarked) | 13
O=C(CSc1nnc(-c2cccs2)o1)c1cccs1 | -10.1
CCN(Cc1ccccc1)C(=O)c1ccc(C(=O)N(CC)Cc2ccccc2)cc1 | 5.22

Structure (SMILES) | hERG current change (%, negative = inhibition) at 10uM [%]
O=C(CSc1ccccc1)NCC1(N2CCCCC2)CCCCC1 | -0.798
Cc1nn(CC(C)C)c(Cl)c1C(=O)O | 14.1
CC(=O)c1ccc(C(=O)NC2CCCN(Cc3ccccc3F)C2)cc1 (centres unmarked) | 1.68
CCOC(=O)C1CCCN(S(=O)(=O)c2cc(Br)cc3c2N(C(=O)C2CC2)CC3)C1 (centres unmarked) | -7.49
O=c1[nH]c(=O)c2cc([N+](=O)[O-])cc([N+](=O)[O-])c2[nH]1 | 20.7
CN(C)c1ccc(/C=N/NC(=O)c2cc(=O)[nH]c3ccccc23)cc1 | 9.79
O=C(NCc1ccccn1)Nc1ccccc1C(F)(F)F | 12.7
Cc1cccc(N2CN=C3SCC(=O)N3C2)c1 | 0.175
O=C1Nc2ccccc2OC1CC(=O)N1CCCC1 (centres unmarked) | -5.31
CN1CCN(CCCNc2c(C=O)c(=O)[nH]c3ccccc23)CC1 | 14.9
Cc1nn(C)c(C)c1NC(=O)/C(C#N)=C\N(C)C | 12.6
CN(CCc1ccccn1)C(=O)CCC1CCCN(C(=O)c2cscn2)C1 (centres unmarked) | -18.1
CCN(Cc1ccccc1)C(=O)CN1C(=O)NC2(CC(C)CC(C)(C)C2)C1=O (centres unmarked) | -11.6
COc1ccccc1OCC(=O)Nc1sc2c(c1C(=O)NCC1CCCO1)CCC2 (centres unmarked) | -8.43
Cn1c(C(=O)N2CCCC(C(=O)O)C2)cc2sccc21 (centres unmarked) | 19.4
CN(C)/C=C1\C(=O)N(c2ccc(F)cc2F)C(c2cccnc2)S1(=O)=O (centres unmarked) | 21.7
Cc1ccc2nc3c(cc(C(=O)NCc4ccco4)c(=N)n3Cc3ccco3)c(=O)n2c1 | -77
Cc1ccc(-c2nnn(CC(=O)N(Cc3ccco3)C(C(=O)NC(C)(C)C)c3ccc(C)o3)n2)o1 (centres unmarked) | -14.4
CCOc1cc(CN2CCCC(N3CCN(c4ccc(F)cc4)CC3)C2)ccc1OC (centres unmarked) | -62.7
Cc1cccc(C)c1-n1c(C)nn(-c2ncc(C(F)(F)F)cc2Cl)c1=O | 8.97
